The source of these data is patent US20250101135A1 (Hoffmann-La Roche, published 2025).

The term EC50 denotes the midpoint of the concentration-response curve. Low readings indicate greater potency, high ones weaker potency.

Assay [1] has as its target T1, human fibroblast activation protein (FAP) on cells (human, UniProt Q12884 1-760).
T1 construct: also called human FAP; huFAP
Kind of assay: flow cytometry on FAP+ MV-3 cells. (In flow cytometry, cells or beads pass a laser one at a time.)

The target in assay [2] is T2, human 4-1BB (CD137) on cells (human, UniProt Q07011 24-255).
T2 construct: whole, on cells; also called 4-1BB+CD8+; 4-1BB+CD4+
Kind of assay: flow cytometry on activated human PBMC, 4-1BB+ CD3+CD8+ T cells.

The target in assay [3] is T2, human 4-1BB (CD137) on cells. Kind of assay: flow cytometry on activated human PBMC, 4-1BB+ CD3+CD4+ T cells.
The target is the same in assay [4]. The assay is described as follows: flow cytometry on activated human PBMC, 4-1BB+ CD8+ T cells.
The target in assay [5] is T3, human CD19 on B cell lymphoma and leukemia cell lines (human, UniProt P15391 20-556).
T3 construct: also called SU-DHL-8; Nalm6
T3 sequence: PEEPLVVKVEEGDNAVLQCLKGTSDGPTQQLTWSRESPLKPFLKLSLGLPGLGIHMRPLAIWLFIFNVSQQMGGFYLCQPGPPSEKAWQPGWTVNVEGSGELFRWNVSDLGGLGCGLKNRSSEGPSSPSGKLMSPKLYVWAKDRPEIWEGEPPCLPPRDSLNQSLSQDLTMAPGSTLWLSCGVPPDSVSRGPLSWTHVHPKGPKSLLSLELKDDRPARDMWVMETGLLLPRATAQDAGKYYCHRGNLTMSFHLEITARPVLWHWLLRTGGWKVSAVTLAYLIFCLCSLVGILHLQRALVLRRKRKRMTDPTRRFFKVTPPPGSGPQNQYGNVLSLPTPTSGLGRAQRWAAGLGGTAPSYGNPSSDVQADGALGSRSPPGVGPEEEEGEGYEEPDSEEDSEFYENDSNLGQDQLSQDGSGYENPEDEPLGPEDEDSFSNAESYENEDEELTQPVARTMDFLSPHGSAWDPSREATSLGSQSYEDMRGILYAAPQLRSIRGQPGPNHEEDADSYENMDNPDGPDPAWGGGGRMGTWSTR
The assay is described as follows: flow cytometry on Nalm6 cells.

Assay [6] addresses T3, human CD19 on B cell lymphoma and …. Kind of assay: flow cytometry on Toledo cells.
Assay [7] has the same target. Kind of assay: flow cytometry on OCI-Ly18 cells.
The target is the same in assay [8]. The assay is described as follows: flow cytometry on SU-DHL-8 cells.
Assay [9] concerns the target T2, human 4-1BB (CD137) on cells. Kind of assay: flow cytometry on activated human PBMC, 4-1BB+ CD4+ T cells.

B1: monovalent FAP(28H1)-targeted human 4-1BB ligand (71-254) trimer-containing Fc (kih) fusion molecule Construct 1.4 (Fc fusion)
chain 1: [no letters for about 200 residues][no letters for about 100 residues][no letters for human IgG1 Fc with changes]
chain 2: [no letters for about 200 residues]GGGGSGGGGSREGPELSPDDPAGLLDLRQGMFAQLVAQNVLLIDGPLSWYSDPGLAGVSLTGGLSYKEDTKELVVAKAGVYYVFFQLELRRVVAGEGSGSVSLALHLQPLRSAAGAAALALTVDLPPASSEARNSAFGFQGRLLHLSAGQRLGVHLHTEARARHAWQLTQGATVLGLFRVTPEIPAGLPSPRSEGGGGSGGGGSRTVAAPSVFIFPPSDRKLKSGTASVVCLLNNFYPREAKVQWKVDNALQSGNSQESVTEQDSKDSTYSLSSTLTLSKADYEKHKVYACEVTHQGLSSPVTKSFNRGEC
heavy: EVQLLESGGGLVQPGGSLRLSCAASGFTFSSHAMSWVRQAPGKGLEWVSAIWASGEQYYADSVKGRFTISRDNSKNTLYLQMNSLRAEDTAVYYCAKGWLGNFDYWGQGTLVTVSSASTKGPSVFPLAPSSKSTSGGTAALGCLVKDYFPEPVTVSWNSGALTSGVHTFPAVLQSSGLYSLSSVVTVPSSSLGTQTYICNVNHKPSNTKVDKKVEPKSCDKTHTCPPCPAPEAAGGPSVFLFPPKPKDTLMISRTPEVTCVVVDVSHEDPEVKFNWYVDGVEVHNAKTKPREEQYNSTYRVVSVLTVLHQDWLNGKEYKCKVSNKALGAPIEKTISKAKGQPREPQVCTLPPSRDELTKNQVSLSCAVKGFYPSDIAVEWESNGQPENNYKTTPPVLDSDGSFFLVSKLTVDKSRWQQGNVFSCSVMHEALHNHYTQKSLSLSPGK
light: EIVLTQSPGTLSLSPGERATLSCRASQSVSRSYLAWYQQKPGQAPRLLIIGASTRATGIPDRFSGSGSGTDFTLTISRLEPEDFAVYYCQQGQVIPPTFGQGTKVEIKRTVAAPSVFIFPPSDEQLKSGTASVVCLLNNFYPREAKVQWKVDNALQSGNSQESVTEQDSKDSTYSLSSTLTLSKADYEKHKVYACEVTHQGLSSPVTKSFNRGEC
notes: text: monomeric 4-1BBL fused to CH1-knob chain, dimeric 4-1BBL on CL*; copies: 1 + 1 + 1 + 1
For the molecule B1, the EC50 was 5.13 nM in [1], 0.19 nM in [2] and 0.34 nM in [3].

B2: bivalent FAP(28H1)-targeted human 4-1BB ligand (71-254) trimer-containing Fc (kih) fusion molecule Construct 1.8 (Fc fusion)
chain 1: [no letters for about 200 residues]GGGGSGGGGSREGPELSPDDPAGLLDLRQGMFAQLVAQNVLLIDGPLSWYSDPGLAGVSLTGGLSYKEDTKELVVAKAGVYYVFFQLELRRVVAGEGSGSVSLALHLQPLRSAAGAAALALTVDLPPASSEARNSAFGFQGRLLHLSAGQRLGVHLHTEARARHAWQLTQGATVLGLFRVTPEIPAGLPSPRSEGGGGSGGGGSEVQLLESGGGLVQPGGSLRLSCAASGFTFSSHAMSWVRQAPGKGLEWVSAIWASGEQYYADSVKGRFTISRDNSKNTLYLQMNSLRAEDTAVYYCAKGWLGNFDYWGQGTLVTVSSASVAAPSVFIFPPSDRKLKSGTASVVCLLNNFYPREAKVQWKVDNALQSGNSQESVTEQDSKDSTYSLSSTLTLSKADYEKHKVYACEVTHQGLSSPVTKSFNRGE[no letters for human IgG1 Fc with changes]
chain 2: [no letters for about 200 residues]GGGGSGGGGSEIVLTQSPGTLSLSPGERATLSCRASQSVSRSYLAWYQQKPGQAPRLLIIGASTRATGIPDRFSGSGSGTDFTLTISRLEPEDFAVYYCQQGQVIPPTFGQGTKVEIKSSASTKGPSVFPLAPSSKSTSGGTAALGCLVEDYFPEPVTVSWNSGALTSGVHTFPAVLQSSGLYSLSSVVTVPSSSLGTQTYICNVNHKPSNTKVDEKVEPKSC
heavy: B1 heavy
light: B1 light
notes: 4-1BB ligands fused to an anti-FAP CrossFab with charged residues on the knob chain
For B2, the EC50 in assay [1] was 2.79 nM; in [2] it was 0.14 nM; in assay [3], 2.77 nM.

B3: monovalent FAP(28H1)-targeted human 4-1BB ligand (80-254) trimer-containing Fc (kih) fusion molecule Construct 1.10 (Fc fusion)
chain 1: [no letters for about 200 residues]GGGGSGGGGSDPAGLLDLRQGMFAQLVAQNVLLIDGPLSWYSDPGLAGVSLTGGLSYKEDTKELVVAKAGVYYVFFQLELRRVVAGEGSGSVSLALHLQPLRSAAGAAALALTVDLPPASSEARNSAFGFQGRLLHLSAGQRLGVHLHTEARARHAWQLTQGATVLGLFRVTPEIPAGLPSPRSEGGGGSGGGGSASTKGPSVFPLAPSSKSTSGGTAALGCLVEDYFPEPVTVSWNSGALTSGVHTFPAVLQSSGLYSLSSVVTVPSSSLGTQTYICNVNHKPSNTKVDEKV[no letters for human IgG1 Fc with changes]
chain 2: [no letters for about 200 residues][no letters for about 120 residues]
heavy: B1 heavy
light: B1 light
notes: 4-1BBL ectodomain aa 80-254, charged residues on ligand chains; also called Construct 10
On to B3, for which the EC50 in [1] came out at 4.31 nM; in [2] it was 0.12 nM; in assay [3] it was 0.3 nM.

B4: monovalent FAP(28H1)-targeted human 4-1BB ligand (71-254) trimer-containing Fc (kih) fusion molecule Construct 1.6 (Fc fusion)
chain 1: [no letters for about 200 residues]GGGGSGGGGSREGPELSPDDPAGLLDLRQGMFAQLVAQNVLLIDGPLSWYSDPGLAGVSLTGGLSYKEDTKELVVAKAGVYYVFFQLELRRVVAGEGSGSVSLALHLQPLRSAAGAAALALTVDLPPASSEARNSAFGFQGRLLHLSAGQRLGVHLHTEARARHAWQLTQGATVLGLFRVTPEIPAGLPSPRSEGGGGSGGGGSASTKGPSVFPLAPSSKSTSGGTAALGCLVEDYFPEPVTVSWNSGALTSGVHTFPAVLQSSGLYSLSSVVTVPSSSLGTQTYICNVNHKPSNTKVDEKV[no letters for human IgG1 Fc with changes]
chain 2: [no letters for about 200 residues][no letters for about 120 residues]
heavy: B1 heavy
light: B1 light
notes: monomeric 4-1BBL fused to CL* via (G4S)1 linker
For the molecule B4, the EC50 in assay [1] was 8.16 nM; in [2] it was 0.19 nM; in [3] it was 0.95 nM.

B5: monovalent CD19(8B8-018) targeted split trimeric 4-1BB ligand (71-248) Fc (kih) fusion containing CH-CL cross without charged residues (construct 3.5) (Fc fusion)
chain 1: REGPELSPDDPAGLLDLRQGMFAQLVAQNVLLIDGPLSWYSDPGLAGVSLTGGLSYKEDTKELVVAKAGVYYVFFQLELRRVVAGEGSGSVSLALHLQPLRSAAGAAALALTVDLPPASSEARNSAFGFQGRLLHLSAGQRLGVHLHTEARARHAWQLTQGATVLGLFRVTPEIPAGLGGGGSGGGGSREGPELSPDDPAGLLDLRQGMFAQLVAQNVLLIDGPLSWYSDPGLAGVSLTGGLSYKEDTKELVVAKAGVYYVFFQLELRRVVAGEGSGSVSLALHLQPLRSAAGAAALALTVDLPPASSEARNSAFGFQGRLLHLSAGQRLGVHLHTEARARHAWQLTQGATVLGLFRVTPEIPAGLGGGGSGGGGSRTVAAPSVFIFPPSDEQLKSGTASVVCLLNNFYPREAKVQWKVDNALQSGNSQESVTEQDSKDSTYSLSSTLTLSKADYEKHKVYACEVTHQGLSSPVTKSFNRGE[no letters for human IgG1 Fc with changes]
chain 2: REGPELSPDDPAGLLDLRQGMFAQLVAQNVLLIDGPLSWYSDPGLAGVSLTGGLSYKEDTKELVVAKAGVYYVFFQLELRRVVAGEGSGSVSLALHLQPLRSAAGAAALALTVDLPPASSEARNSAFGFQGRLLHLSAGQRLGVHLHTEARARHAWQLTQGATVLGLFRVTPEIPAGLGGGGSGGGGSASTKGPSVFPLAPSSKSTSGGTAALGCLVKDYFPEPVTVSWNSGALTSGVHTFPAVLQSSGLYSLSSVVTVPSSSLGTQTYICNVNHKPSNTKVDKKVEPKSC
heavy: QVQLVQSGAEVKKPGASVKVSCKASGYTFTDYIMHWVRQAPGQGLEWMGYINPYNDGSKYTEKFQGRVTMTSDTSISTAYMELSRLRSDDTAVYYCARGTYYYGSALFDYWGQGTTVTVSSASTKGPSVFPLAPSSKSTSGGTAALGCLVKDYFPEPVTVSWNSGALTSGVHTFPAVLQSSGLYSLSSVVTVPSSSLGTQTYICNVNHKPSNTKVDKKVEPKSCDKTHTCPPCPAPEAAGGPSVFLFPPKPKDTLMISRTPEVTCVVVDVSHEDPEVKFNWYVDGVEVHNAKTKPREEQYNSTYRVVSVLTVLHQDWLNGKEYKCKVSNKALGAPIEKTISKAKGQPREPQVCTLPPSRDELTKNQVSLSCAVKGFYPSDIAVEWESNGQPENNYKTTPPVLDSDGSFFLVSKLTVDKSRWQQGNVFSCSVMHEALHNHYTQKSLSLSPGK
light: DIVMTQTPLSLSVTPGQPASISCKSSQSLENPNGNTYLNWYLQKPGQSPQLLIYRVSKRFSGVPDRFSGSGSGTDFTLKISRVEAEDVGVYYCLQLTHVPYTFGQGTKLEIKRTVAAPSVFIFPPSDEQLKSGTASVVCLLNNFYPREAKVQWKVDNALQSGNSQESVTEQDSKDSTYSLSSTLTLSKADYEKHKVYACEVTHQGLSSPVTKSFNRGEC
Regarding B5, the EC50 amounted to 0.04 nM in assay [4]; 0.43 nM in assay [5]; 0.27 nM in assay [6]; 0.31 nM in assay [7]; 0.54 nM in [8]; 1.03 nM in [9].
